# Assay results reported in the supplement of paper PMC8728848.
# Some of the results follow.
# How the values were obtained:
# Assay in all cases: glycan array binding signal (z-score within array); higher = stronger binding
# Conditions in all cases: glycan notation: IUPAC condensed, linker removed
# [1] = target: Gal(b1-4)GlcNAc(b1-3)[GlcNAc(b1-6)]Gal(b1-4)GlcNAc
# Method in brief: (§1)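 The binding signal is a Z-score computed within each array. Data were drawn from 3228 arrays in the Consortium for Functional Glycomics database, restricted to those with a known protein sequence. Scores were averaged over arrays of the same protein sequence at different concentrations or buffers, and over linkers, and negative values can be taken as non-binding.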
# [2] = target: Gal(b1-4)GlcNAc(b1-6)Gal(b1-4)GlcNAc
# Method in brief: as §1
# [3] = target: Gal(b1-4)GlcNAc(b1-6)Gal(b1-4)GlcNAc(b1-6)GalNAc
# Method in brief: as §1
# [4] = target: Gal(b1-4)GlcNAc(b1-6)GalNAc
# Method in brief: as §1
# [5] = target: Gal(b1-4)GlcNAc(b1-6)[Gal(b1-3)]GalNAc
# Method in brief: as §1
# [6] = target: Gal(b1-4)GlcNAc(b1-6)[Gal(b1-3)]GlcNAc
# Method in brief: as §1
# [7] = target: Gal(b1-4)GlcNAc(b1-6)[Gal(b1-4)GlcNAc(b1-3)]GalNAc
# Method in brief: as §1
# [8] = target: Gal(b1-4)GlcNAc6P
# Method in brief: as §1
# [9] = target: Gal(b1-6)Gal
# Method in brief: as §1
# [10] = target: Gal3S(b1-3)GalNAc
# Method in brief: as §1
# [11] = target: Gal3S(b1-3)GlcNAc
# Method in brief: as §1
# [12] = target: Gal3S(b1-3)[Fuc(a1-4)]GlcNAc
# Method in brief: as §1
# [13] = target: Gal3S(b1-4)Glc
# Method in brief: as §1
# [14] = target: Gal3S(b1-4)Glc6S
# Method in brief: as §1
# [15] = target: Gal3S(b1-4)GlcNAc
# Method in brief: as §1
# [16] = target: Gal3S(b1-4)GlcNAc6S
# Method in brief: as §1
# [17] = target: Gal3S(b1-4)[Fuc(a1-3)]Glc
# Method in brief: as §1
# [18] = target: Gal3S(b1-4)[Fuc(a1-3)]Glc6S
# Method in brief: as §1
# [19] = target: Gal3S(b1-4)[Fuc(a1-3)]GlcNAc
# Method in brief: as §1
# [20] = target: Gal3S(b1-4)[Fuc(a1-3)]GlcNAc6S
# Method in brief: as §1
# [21] = target: Gal3S4S(b1-4)GlcNAc
# Method in brief: as §1
# [22] = target: Gal3S6S(b1-4)GlcNAc
# Method in brief: as §1
# [23] = target: Gal3S6S(b1-4)GlcNAc6S
# Method in brief: as §1
# [24] = target: Gal4S(b1-4)GlcNAc
# Method in brief: as §1
# [25] = target: Gal4S6S(b1-4)GlcNAc
# Method in brief: as §1
# [26] = target: Gal6P(b1-4)GlcNAc
# Method in brief: as §1
# [27] = target: Gal6S(b1-3)GlcNAc
# Method in brief: as §1
# [28] = target: Gal6S(b1-3)GlcNAc6S
# Method in brief: as §1
# [29] = target: Gal6S(b1-4)Glc
# Method in brief: as §1
# [30] = target: Gal6S(b1-4)Glc6S
# Method in brief: as §1
# [31] = target: Gal6S(b1-4)GlcNAc
# Method in brief: as §1
# [32] = target: Gal6S(b1-4)GlcNAc6S
# Method in brief: as §1
# [33] = target: GalNAc(a1-3)Gal
# Method in brief: as §1
# [34] = target: GalNAc(a1-3)GalNAc
# Method in brief: as §1
# [35] = target: GalNAc(a1-3)GalNAc(a1-3)Gal(a1-4)Gal(b1-4)GlcNAc
# Method in brief: as §1
# [36] = target: GalNAc(a1-3)GalNAc(b1-3)Gal(a1-4)Gal(b1-4)Glc
# Method in brief: as §1
# [37] = target: GalNAc(b1-3)Gal
# Method in brief: as §1
# [38] = target: GalNAc(b1-3)Gal(a1-4)Gal(b1-4)GlcNAc
# Method in brief: as §1
# [39] = target: GalNAc(b1-3)Gal(a1-4)Gal(b1-4)GlcNAc(b1-3)Gal(b1-4)Glc
# Method in brief: as §1
# [40] = target: GalNAc(b1-3)Gal(a1-6)Gal(b1-4)Glc
# Method in brief: as §1
# [41] = target: GalNAc(b1-3)GalNAc
# Method in brief: as §1
# [42] = target: GalNAc(b1-3)GlcNAc
# Method in brief: as §1
# [43] = target: GalNAc(b1-4)Gal(b1-4)Glc
# Method in brief: as §1
# [44] = target: GalNAc(b1-4)GlcNAc
# Method in brief: as §1
# [45] = target: GalNAc(b1-4)GlcNAc(b1-2)Man
# Method in brief: as §1
binder,measurement,setting,value
EEA (Euonymus europaeus) (protein) MASTIIATGPTYRVYCRAAPNYNMIVGKGVAFLAPIDETNELQYWYKDDTYSYIKDEAGLPAFSLVNKATGLTLKHSNHHPVPVKLVTYNPNVVDESVLWSQADDRGDGYSAIRSLTNPASHLEAAPLNDWSYNGAIIMGGVWIDAYNQQWKIEPHTG,glycan array binding signal (z-score),[1],-0.062
same,glycan array binding signal (z-score),[2],-0.238
same,glycan array binding signal (z-score),[3],-0.293
same,glycan array binding signal (z-score),[4],-0.101
same,glycan array binding signal (z-score),[5],-0.132
same,glycan array binding signal (z-score),[6],-0.155
same,glycan array binding signal (z-score),[7],-0.186
same,glycan array binding signal (z-score),[8],-0.096
same,glycan array binding signal (z-score),[9],-0.197
same,glycan array binding signal (z-score),[10],-0.139
same,glycan array binding signal (z-score),[11],-0.205
same,glycan array binding signal (z-score),[12],-0.156
same,glycan array binding signal (z-score),[13],-0.159
same,glycan array binding signal (z-score),[14],-0.062
same,glycan array binding signal (z-score),[15],-0.217
same,glycan array binding signal (z-score),[16],-0.14
same,glycan array binding signal (z-score),[17],-0.241
same,glycan array binding signal (z-score),[18],0.197
same,glycan array binding signal (z-score),[19],-0.158
same,glycan array binding signal (z-score),[20],-0.178
same,glycan array binding signal (z-score),[21],-0.17
same,glycan array binding signal (z-score),[22],-0.193
same,glycan array binding signal (z-score),[23],-0.172
same,glycan array binding signal (z-score),[24],-0.19
same,glycan array binding signal (z-score),[25],-0.144
same,glycan array binding signal (z-score),[26],-0.236
same,glycan array binding signal (z-score),[27],-0.215
same,glycan array binding signal (z-score),[28],-0.159
same,glycan array binding signal (z-score),[29],-0.188
same,glycan array binding signal (z-score),[30],-0.172
same,glycan array binding signal (z-score),[31],-0.262
same,glycan array binding signal (z-score),[32],-0.097
same,glycan array binding signal (z-score),[33],-0.079
same,glycan array binding signal (z-score),[34],-0.281
same,glycan array binding signal (z-score),[35],-0.242
same,glycan array binding signal (z-score),[36],-0.248
same,glycan array binding signal (z-score),[37],-0.178
same,glycan array binding signal (z-score),[38],-0.231
same,glycan array binding signal (z-score),[39],-0.221
same,glycan array binding signal (z-score),[40],-0.238
same,glycan array binding signal (z-score),[41],-0.228
same,glycan array binding signal (z-score),[42],-0.142
same,glycan array binding signal (z-score),[43],-0.155
same,glycan array binding signal (z-score),[44],-0.032
same,glycan array binding signal (z-score),[45],-0.164
